Results from the supplement of paper PMC9927326.
MIC of clinical C. albicans isolates, CLSI broth microdilution (ranges and time not stated); higher = less susceptible. Call: susceptible or wild type [S] / resistant or non-wild type [R] by CLSI breakpoints or epidemiological cut-offs; intermediate and dose-dependent carry no call here (the paper groups them with resistant). '<=' and '>=' mark each drug's lowest and highest value, inferred; the source prints them plain. Isolates are numbered anew.

Experiments:
Test in all cases: CLSI broth microdilution.
micafungin = compound: CCCCCOc1ccc(-c2cc(-c3ccc(C(=O)N[C@H]4C[C@@H](O)[C@@H](O)NC(=O)[C@@H]5[C@@H](O)[C@@H](C)CN5C(=O)[C@H]([C@H](O)CC(N)=O)NC(=O)[C@H]([C@H](O)[C@@H](O)c5ccc(O)c(OS(=O)(=O)O)c5)NC(=O)[C@@H]5C[C@@H](O)CN5C(=O)[C@H]([C@@H](C)O)NC4=O)cc3)no2)cc1 [micafungin]
caspofungin = compound: CC[C@H](C)C[C@H](C)CCCCCCCCC(=O)N[C@H]1C[C@@H](O)[C@@H](NCCN)NC(=O)[C@@H]2[C@@H](O)CCN2C(=O)[C@H]([C@H](O)CCN)NC(=O)[C@H]([C@H](O)[C@@H](O)c2ccc(O)cc2)NC(=O)[C@@H]2C[C@@H](O)CN2C(=O)[C@H]([C@@H](C)O)NC1=O [caspofungin]
posaconazole = compound: CC[C@@H]([C@H](C)O)n1ncn(-c2ccc(N3CCN(c4ccc(OC[C@@H]5CO[C@@](Cn6cncn6)(c6ccc(F)cc6F)C5)cc4)CC3)cc2)c1=O [posaconazole]
itraconazole = compound: CCC(C)n1ncn(-c2ccc(N3CCN(c4ccc(OCC5COC(Cn6cncn6)(c6ccc(Cl)cc6Cl)O5)cc4)CC3)cc2)c1=O [itraconazole]
anidulafungin = compound: CCCCCOc1ccc(-c2ccc(-c3ccc(C(=O)N[C@H]4C[C@@H](O)[C@@H](O)NC(=O)[C@@H]5[C@@H](O)[C@@H](C)CN5C(=O)[C@H]([C@@H](C)O)NC(=O)[C@H]([C@H](O)[C@@H](O)c5ccc(O)cc5)NC(=O)[C@@H]5C[C@@H](O)CN5C(=O)[C@H]([C@@H](C)O)NC4=O)cc3)cc2)cc1 [anidulafungin]
fluconazole = compound: OC(Cn1cncn1)(Cn1cncn1)c1ccc(F)cc1F [fluconazole]
flucytosine = compound: Nc1[nH]c(=O)ncc1F [flucytosine]
voriconazole = compound: C[C@@H](c1ncncc1F)[C@](O)(Cn1cncn1)c1ccc(F)cc1F [voriconazole]
amphotericin B = compound: C[C@@H]1[C@H](O)[C@@H](C)/C=C/C=C/C=C/C=C/C=C/C=C/C=C/[C@H](O[C@@H]2O[C@H](C)[C@@H](O)[C@H](N)[C@@H]2O)C[C@@H]2O[C@](O)(C[C@@H](O)C[C@@H](O)[C@H](O)CC[C@@H](O)C[C@@H](O)CC(=O)O[C@H]1C)C[C@H](O)[C@H]2C(=O)O [amphotericin B]

Test System	MIC (micafungin)	MIC (caspofungin)	MIC (posaconazole)	MIC (itraconazole)	MIC (anidulafungin)	MIC (fluconazole)	MIC (flucytosine)	MIC (voriconazole)	MIC (amphotericin B)
Candida albicans isolate 284 (Erg11p: WT, Fur1p: WT, Tac1p: WT)	0.015 mg/L [S]	0.06 mg/L [S]	0.015 mg/L [S]	0.03 mg/L [S]	0.12 mg/L [S]	0.5 mg/L [S]	≤ 0.06 mg/L [S]	≤ 0.008 mg/L [S]	0.5 mg/L [S]
Candida albicans isolate 271 (Erg11p: E266D, Fur1p: WT, Tac1p: N896S,I558V,A377V,F189S,N174D,M170I,K87N)	0.015 mg/L [S]	0.03 mg/L [S]	0.015 mg/L [S]	0.03 mg/L [S]	0.03 mg/L [S]	0.5 mg/L [S]	≤ 0.06 mg/L [S]	≤ 0.008 mg/L [S]	0.25 mg/L [S]
Candida albicans isolate 350 (Erg11p: WT, Fur1p: WT, Tac1p: I558V,A377V,F189S,N174D,M170I,K87N)	≤ 0.008 mg/L [S]	0.06 mg/L [S]	0.03 mg/L [S]	0.06 mg/L [S]	≤ 0.015 mg/L [S]	1 mg/L [S]	≤ 0.06 mg/L [S]	0.015 mg/L [S]	1 mg/L [S]
Candida albicans isolate 30 (Erg11p: K342R,H283L,E266D, Fur1p: WT, Tac1p: I558V,A377V,F189S,N174D,M170I,K87N)	≤ 0.008 mg/L [S]	0.12 mg/L [S]	0.03 mg/L [S]	0.03 mg/L [S]	0.06 mg/L [S]	0.5 mg/L [S]	≤ 0.06 mg/L [S]	≤ 0.008 mg/L [S]	0.5 mg/L [S]
Candida albicans isolate 17 (Erg11p: V488I,E266D, Fur1p: WT, Tac1p: N896S)	0.015 mg/L [S]	0.03 mg/L [S]	0.015 mg/L [S]	0.03 mg/L [S]	0.03 mg/L [S]	0.25 mg/L [S]	≤ 0.06 mg/L [S]	≤ 0.008 mg/L [S]	0.25 mg/L [S]
Candida albicans isolate 79 (Erg11p: WT, Fur1p: WT, Tac1p: N896S)	≤ 0.008 mg/L [S]	0.03 mg/L [S]	0.015 mg/L [S]	0.03 mg/L [S]	≤ 0.015 mg/L [S]	0.25 mg/L [S]	≤ 0.06 mg/L [S]	≤ 0.008 mg/L [S]	0.5 mg/L [S]
Candida albicans isolate 324 (Erg11p: WT, Fur1p: WT, Tac1p: N896S)	0.015 mg/L [S]	0.03 mg/L [S]	0.015 mg/L [S]	0.03 mg/L [S]	0.06 mg/L [S]	0.25 mg/L [S]	≤ 0.06 mg/L [S]	≤ 0.008 mg/L [S]	0.25 mg/L [S]
Candida albicans isolate 195 (Erg11p: K342R,E266D, Fur1p: WT, Tac1p: I558V,A377V,F189S,N174D,M170I,K87N)	≤ 0.008 mg/L [S]	0.03 mg/L [S]	0.015 mg/L [S]	0.03 mg/L [S]	0.03 mg/L [S]	0.5 mg/L [S]	≤ 0.06 mg/L [S]	≤ 0.008 mg/L [S]	0.5 mg/L [S]
Candida albicans isolate 18 (Erg11p: E266D, Fur1p: WT, Tac1p: T885K,I558V,A430V,A377V,M170V)	≤ 0.008 mg/L [S]	0.03 mg/L [S]	0.015 mg/L [S]	≤ 0.015 mg/L [S]	≤ 0.015 mg/L [S]	0.25 mg/L [S]	≤ 0.06 mg/L [S]	≤ 0.008 mg/L [S]	0.25 mg/L [S]
Candida albicans isolate 19 (Erg11p: WT, Fur1p: S8N, Tac1p: N896S)	≤ 0.008 mg/L [S]	0.12 mg/L [S]	0.03 mg/L [S]	0.06 mg/L [S]	0.06 mg/L [S]	0.25 mg/L [S]	0.12 mg/L [S]	≤ 0.008 mg/L [S]	0.25 mg/L [S]
Candida albicans isolate 23 (Erg11p: E266D, Fur1p: R101C, Tac1p: T885K,I558V,A430V,A377V,F189S,N174D,M170I,M170V,K87N)	0.015 mg/L [S]	0.03 mg/L [S]	0.015 mg/L [S]	≤ 0.015 mg/L [S]	≤ 0.015 mg/L [S]	0.25 mg/L [S]	≤ 0.06 mg/L [S]	≤ 0.008 mg/L [S]	0.5 mg/L [S]
Candida albicans isolate 118 (Erg11p: Y132H,T123I, Fur1p: R101C, Tac1p: WT)	≤ 0.008 mg/L [S]	0.015 mg/L [S]	0.03 mg/L [S]	0.06 mg/L [S]	≤ 0.015 mg/L [S]	2 mg/L [S]	0.12 mg/L [S]	0.25 µg/mL	0.5 mg/L [S]
Candida albicans isolate 21 (Erg11p: Y132H,T123I, Fur1p: R101C, Tac1p: WT)	0.015 mg/L [S]	0.015 mg/L [S]	0.06 mg/L [S]	0.25 mg/L [R]	≤ 0.015 mg/L [S]	4 µg/mL	≤ 0.06 mg/L [S]	0.5 µg/mL	0.5 mg/L [S]
Candida albicans isolate 323 (Erg11p: V488I,E266D, Fur1p: WT, Tac1p: M170V,S108N)	0.015 mg/L [S]	0.03 mg/L [S]	0.015 mg/L [S]	0.06 mg/L [S]	0.06 mg/L [S]	0.5 mg/L [S]	≤ 0.06 mg/L [S]	≤ 0.008 mg/L [S]	0.5 mg/L [S]
Candida albicans isolate 95 (Erg11p: V488I,E266D, Fur1p: WT, Tac1p: N896S,I895T)	0.015 mg/L [S]	0.03 mg/L [S]	0.015 mg/L [S]	≤ 0.015 mg/L [S]	≤ 0.015 mg/L [S]	0.25 mg/L [S]	≤ 0.06 mg/L [S]	≤ 0.008 mg/L [S]	0.25 mg/L [S]
Candida albicans isolate 267 (Erg11p: E266D, Fur1p: WT, Tac1p: I558V,A377V,F189S,N174D,M170I,K87N)	≤ 0.008 mg/L [S]	0.015 mg/L [S]	0.015 mg/L [S]	0.03 mg/L [S]	0.06 mg/L [S]	0.5 mg/L [S]	≤ 0.06 mg/L [S]	≤ 0.008 mg/L [S]	0.5 mg/L [S]
